# In PubChem BioAssay AID1345082 (National Center for Advancing Translational Sciences (NCATS), 2018):
# In all, about 94,000 compounds went through this assay and about 4,000 (4.3%) were called active. This list was built around the results that the source calls inconclusive (neither active nor inactive); the mix of calls is not that of the screen. Calls come from the whole dose curve; as a rule, active = well fitted inhibition curve with a large enough effect; inconclusive = small, poorly fitted or top-dose-only effect; inactive = no such curve, though single readings can be large or run the other way. A potency beside an inconclusive call is a rough fit, not a confirmed value.
# Assay: Cytotoxic Profiling in NIH 3T3 Cell Line of Diverse Libraries Using Quantitative High-Throughput Screening; note: nearly all actives have a fitted effect of over 55% in size
# Conditions: NIH 3T3 viability, CellTiter-Glo ATP luminescence, 48-72 h; activity change, negative = cytotoxicity: at 96.7 µM (top of the series) unless noted; series mostly up to 96.7 µM
# Summary of the method: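 ATP-dependent luminescence (CellTiter-Glo) served as the viability signal for NIH 3T3 cells treated with compound for 48 or 72 hr at 37 °C.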
# % is set by controls: 0 for no effect and ±100 for the full control effect; potency is the fitted concentration of half-maximal effect; tags give direction and shape of the fitted curve.
Compound,Potency,"activity change, negative = cytotoxicity",outcome
O=C(NC1CC1)c1ccc(N2CC3CC(C2)[C@H]2CCCC(=O)N2C3)nc1 (stereo partly specified),"inconclusive: 79.4 µM [inhibitor, partial curve, poor fit]",–,–
C[S+](=O)([O-])NC1CCN(Cc2cccc(-c3ccc(F)c(F)c3)c2)CC1,"inconclusive: 50.1 µM [inhibitor, partial curve, poor fit]",–,–
O=C(NC1CCN(Cc2ccc(-c3ccsc3)cc2)C1)C1CCCC1 (stereo unspecified),–,inactive: -5.2% [at 138 µM],–
COc1ccc(OCC2(C)COc3ccc(C(=O)NCCc4ccccc4)cc3N2)cc1 (stereo unspecified),"inconclusive: 44.7 µM [inhibitor, full curve]",–,–
COc1cccc(CNC(=O)c2cc(-c3ccsc3)c3nncn3n2)c1,"inconclusive: 50.1 µM [inhibitor, partial curve, poor fit]",–,–
CCN1CCc2[nH]cnc2C12CCN(C(=O)C1CCc3ccccc3C1)CC2 (stereo unspecified),–,inactive: -24.9%,–
O=C(NC1CCCCCC1)c1ccc2nc(-c3ccncc3)oc2c1,–,inactive: -23.6%,–
COc1cccc(OC2CN(C(=O)c3[nH]c4c(C)cc(C)cc4c3C)C2)c1,"inconclusive: 79.4 µM [inhibitor, partial curve, poor fit]",–,–
O=S(=O)(c1cccc(F)c1)N1CCC2(CC1)CC(Cc1nc(C3CC3)no1)CCO2 (stereo unspecified),"inconclusive: 35.5 µM [inhibitor, partial curve, poor fit]",–,–
COc1ccc(-c2cnc3n[nH]c(-c4sccc4C)c3n2)cc1,"inconclusive: 8.91 µM [inhibitor, full curve, poor fit]",–,–
CC(=O)Nc1ccccc1-c1c(C)nn2c1N(C(=O)Cc1ccccc1)CCC2,"inconclusive: 100 µM [inhibitor, partial curve, poor fit]",–,–
O=C(c1ccccc1F)N1CCC(Cc2nc(-c3ccccc3)n[nH]2)CC1,–,inactive: -22.6%,–
CC(=O)N1CCN(c2nc3c(s2)CC(C(=O)Nc2cccc(C(C)(C)C)c2)CC3)CC1 (stereo unspecified),"inconclusive: 50.1 µM [inhibitor, partial curve, poor fit]",–,–
CC1(CNc2ccccc2)COc2ccc(C(=O)N3CC[S+](=O)([O-])CC3)cc2N1 (stereo unspecified),"inconclusive: 112 µM [inhibitor, partial curve, poor fit]",–,–
NCC(=O)N1CCC(n2nccc2NC(=O)c2ccc3c(c2)OCO3)CC1,–,inactive: 1.45%,–
C[C@@H](O)CNc1nccc(C2(c3ccccc3Cl)CCNCC2)n1,–,inactive: -7.95%,–
O=C(NC1C[C@H]2CC[C@@H](C1)N2C(=O)C1CCCC1)c1ccc(F)cc1 (stereo partly specified),–,inactive: -16.9%,–
COCC1CN(C(C)=O)CC12CCN(C(=O)c1cccc(Cl)c1)CC2 (stereo unspecified),–,inactive: -24.5%,–
O=C(NCCCc1ccccc1)c1ccc2nccn2c1,"inconclusive: 89.1 µM [inhibitor, partial curve, poor fit]",–,–
COCCn1c(=O)c(C(=O)N2CCN(C(=O)C3CC3)CC2)nc2cccnc21,–,inactive: -27.4%,–
COCCN1Cc2ccc(Nc3ccc(OC)cc3)nc2C(C)(C(=O)NC2COC2)C1 (stereo unspecified),"inconclusive: 79.4 µM [inhibitor, partial curve, poor fit]",–,–

Compound,Potency,"activity change, negative = cytotoxicity",outcome
COc1cccc(CC(=O)N2CCCn3nc(C)c(-c4ccccc4-c4ccccc4)c32)c1,active: 79.4 µM,–,–
COc1ccc(-c2cccc(C(=O)NCc3ccc(C(F)(F)F)cc3)c2)nn1,"inconclusive: 25.1 µM [inhibitor, partial curve]",–,–
COc1ccccc1C(=O)N1CCN(C(=O)c2nnn3c2COC(c2ccc(C)cc2)C3)CC1 (stereo unspecified),"inconclusive: 50.1 µM [inhibitor, partial curve, poor fit]",–,–
Cc1noc(C)c1-c1cc2cc(CN(C)C)oc2c(Nc2ccn(C)n2)n1,"inconclusive: 31.6 µM [inhibitor, full curve]",–,–
O=C(c1cccc(Cl)c1)N1CCC(C(=O)N2CCCC(c3nc4ncccc4[nH]3)C2)CC1 (stereo unspecified),"inconclusive: 50.1 µM [inhibitor, partial curve, poor fit]",–,–
O=C(CCC1CCN(C(=O)c2ccccn2)CC1)N1CCC(Cc2ccccc2)CC1,–,inactive: -37.2%,–
COCCC(=O)N1CC2(CCCCC2)CC1COc1ccc(OC)cc1 (stereo unspecified),"inconclusive: 50.1 µM [inhibitor, partial curve, poor fit]",–,–
Cc1ccc(-c2ccc3nnc(CNC(=O)c4cccc5[nH]ccc45)n3n2)cc1C,"inconclusive: 50.1 µM [inhibitor, single point]",–,–
O=C(CN1CCCC1)N[C@H]1CC[C@H](Nc2nccc(-c3cccnc3)n2)C1,"inconclusive: 89.1 µM [inhibitor, partial curve, poor fit]",–,–
CN(Cc1ccccc1)C(=O)c1c(OCC2CC2)cc(=O)n2c1CCOCC2,–,inactive: 3.84%,–
Cc1noc2c(N3CC(O)C3)cc(-c3ccsc3)nc12,"inconclusive: 100 µM [inhibitor, partial curve, poor fit]",–,–
O=C(Cc1ccccc1)NCC1CN(Cc2ccncc2Cl)CC12CN(c1ccccc1)C2 (stereo unspecified),–,inactive: -23.5%,–
CCN1c2cc(C(=O)NCc3cc(F)ccc3F)ccc2C(=O)N2CCCCCC21 (stereo unspecified),"inconclusive: 56.2 µM [inhibitor, partial curve, poor fit]",–,–
CC(=O)N1CCN(Cc2ccc(OCCCN3CCOCC3)cc2)CC1,–,–,inactive
COc1ccc2cc(C3CN(C(=O)CCc4n[nH]c(C)n4)CCO3)ccc2c1 (stereo unspecified),"inconclusive: 35.5 µM [inhibitor, full curve, poor fit]",–,–
Cc1ccc(-n2nc3n(c2=O)CCN(C(=O)c2ccc(F)cc2)C3)cc1,"inconclusive: 50.1 µM [inhibitor, single point]",–,–
CC(C)Nc1ccnc(N2CCN(Cc3ccccc3F)C(CCO)C2)n1 (stereo unspecified),"inconclusive: 50.1 µM [inhibitor, partial curve, poor fit]",–,–
COc1ccc(C2Cn3nnc(-c4nc(C(C)(C)C)no4)c3CO2)cc1 (stereo unspecified),"inconclusive: 39.8 µM [inhibitor, partial curve, poor fit]",–,–
CCCCCC(=O)Nc1ccc([C@H]2OCC(=O)N(Cc3nccn3C)[C@@H]2CO)cc1,–,inactive: -18.1% [at 174 µM],–
Cn1cc(CN2C[C@@H](F)[C@@H](OCc3nc4ccccc4[nH]3)C2)c2ccccc21,"inconclusive: 100 µM [inhibitor, single point]",–,–
